Assay results published in patent publication US6531511B1, “2-adamantanemethanamine compounds for treating abnormalities in glutamatergic transmission” (Vernalis Research Limited, priority 1999, dated 2003).
Counter-ions that a name gives are not always drawn. At least one compound was matched to its structure with a doubt left.

How the values were obtained:
[1] = target: PCP site of the NMDA receptor (cerebellar membranes); assay: [3H]-MK-801 binding at the PCP site of the NMDA receptor, rat cerebellar membranes; conditions: rat cerebellum membranes; [3H]-MK-801 5 nM, 10 μM glutamate, 10 μM glycine, 120 min room temperature
[2] = target: T1, PCP site of the NMDA receptor (cortical membranes); assay: [3H]-MK-801 binding at the PCP site of the NMDA receptor, rat cortical membranes; conditions: rat cortex membranes; [3H]-MK-801 5 nM, 10 μM glutamate, 10 μM glycine, 120 min room temperature
T1 construct: rows headed: IC50(μM) Cortex; other: rat cortex membranes; [3H]-MK-801 5 nM, 10 μM glutamate, 10 μM glycine, 120 min room temperatur

[3] = system: PCP site of the NMDA receptor (cortical membranes); assay: as above; conditions: ratio of cortical to cerebellar binding affinity (IC50 cortex / IC50 cerebellum)

Compound	IC50 [1] [µM]	IC50 [2] [µM]	Ratio [3]
NCC1(c2ccccc2)C2CC3CC(C2)CC1C3 (stereo not drawn) [Example 3, 2-Phenyl-2-adamantanemethanamine hydrochloride]	21	87	4.1
NCC1(c2ccc(Cl)cc2)C2CC3CC(C2)CC1C3 (stereo not drawn) [Example 7, 2-(4-Chlorophenyl)-2-adamantanemethanamine hydrochloride]	68	103	1.5
NCC1(c2ccc(F)cc2)C2CC3CC(C2)CC1C3 (stereo not drawn) [Example 6, 2-(4-Fluorophenyl)-2-adamantanemethanamine hydrochloride]	48	53	1.1
COc1ccc(C2(CN)C3CC4CC(C3)CC2C4)cc1 (stereo not drawn) [Example 8, 2-(4-Methoxyphenyl)-2-adamantanemethanamine hydrochloride]	24	51	2.1
Cc1cccc(C2(CN)C3CC4CC(C3)CC2C4)c1 (stereo not drawn) [Example 2, 2-(3-Methylphenyl)-2-adamantanemethanamine hydrochloride]	6	13	2.2
NCC1(c2cccs2)C2CC3CC(C2)CC1C3 (stereo not drawn) [Example 10, 2-(2-Thienyl)-2-adamantanemethanamine hydrochloride]	20	33	1.7
CCc1cccc(C2(CN)C3CC4CC(C3)CC2C4)c1 (stereo not drawn) [Example 1, 2-(3-Ethylphenyl)-2-adamantanemethanamine hydrochloride]	14	27	1.9
NCC1(c2ccc(C(F)(F)F)cc2)C2CC3CC(C2)CC1C3 (stereo not drawn) [Example 9, 2-(4-Trifluoromethylphenyl)-2-adamantanemethanamine hydrochloride]	110	189	1.7
Cc1ccc(C2(CN)C3CC4CC(C3)CC2C4)cc1 (stereo not drawn) [Example 4, 2-(4-Methylphenyl)-2-adamantanemethanamine hydrochloride]	33	124	3.8
